{"source": "PubChem BioAssay AID463173", "about": "(ICCB-Longwood Screening Facility, Harvard Medical School, 2010)", "note": "Among all 52,000 compounds or so, about 4,300 (8.3%) were called active. No stated cut-off is given here; in the data, active means survival mostly below about 52% (no sharp cut-off); inactive means mostly above about 56%. The list shows a part of the results.", "data": [{"test_system": "DeltatarO mutant", "test": "S. aureus survival, RN4220 and DeltatarO strains – OD600, teichoic acid synthesis inhibitors, primary screen (AID 463173)", "conditions": "S. aureus RN4220 wild type/DeltatarO growth, OD600, 18 h, active compounds read low, screened at 18.75 µg/mL (by protocol)", "values": [{"smiles": "c1cnc(N2CCN(c3ncc4c(n3)CCNC4)CC2)nc1", "survival": "inactive: 122%"}, {"smiles": "O=C(CN1CCN(c2ccc(F)cc2)CC1)N1CCCC1", "survival": "inactive: 83%"}, {"smiles": "COc1ccc(OC)c(-n2nnc(-c3nc(-c4cc(OC)c(OC)c(OC)c4)no3)c2C)c1", "survival": "inactive: 75%"}, {"smiles": "O=c1oc2c3c(ccc2c2ccccc12)OCN(Cc1ccc(Cl)cc1)C3", "survival": "inactive: 66%"}, {"smiles": "COc1ccc(-c2nc3ccccc3n3c(-c4ccccc4)c4c(=O)n(C)c(=O)n(C)c4c23)cc1OC", "survival": "inactive: 72%"}, {"smiles": "O=c1cccc2n1CC1CC(C2)N(c2nc(N3CCCCC3)nc(N3CCCCC3)n2)C1", "note": "(configuration not stated)", "survival": "inactive: 74%"}, {"smiles": "COc1ccc(OCC2CNC(=O)O2)cc1", "note": "(configuration not stated)", "survival": "inactive: 61%"}, {"smiles": "Cc1ccc(CNC(=O)c2ccc(Cn3c(=O)c4ccccc4n(CC(=O)Nc4c(C)cc(C)cc4C)c3=O)cc2)cc1", "survival": "inactive: 81%"}, {"smiles": "O=C(Cc1cccs1)N(c1nnc(-c2ccc(F)cc2)s1)C1CCCC1", "survival": "inactive: 106%"}, {"smiles": "CC(C)(N)COc1nonc1N", "survival": "inactive: 94%"}, {"smiles": "CCOc1ccc2nc(NCCCNC(=O)C3CCCO3)c(C#N)cc2c1", "note": "(configuration not stated)", "survival": "inactive: 83%"}, {"smiles": "CC(=O)N1CCc2cc(S(=O)(=O)NC(Cc3ccccc3)C(=O)Nc3cc(C)ccc3C)ccc21", "note": "(configuration not stated)", "survival": "inactive: 74%"}, {"smiles": "CCOc1ccc(C(=O)Nc2ccc3nc(SCC(=O)N4CCc5ccccc54)sc3c2)cc1", "survival": "inactive: 58%"}, {"smiles": "CC1=C(c2ccc(C)cc2)S(=O)(=O)N(Cc2ccc(C(=O)Nc3ccc(C)c(F)c3)cc2)C1=O", "survival": "inactive: 62%"}, {"smiles": "NC(=O)CSc1ncc2c(n1)-c1ccccc1N(Cc1ccc(F)cc1)S2(=O)=O", "survival": "inactive: 94%"}, {"smiles": "CN1C(=O)c2ccccc2Sc2ccc(NC(=O)N3CCN(c4ccccc4)CC3)cc21", "survival": "inactive: 93%"}, {"smiles": "O=C(NCc1ccccc1)c1cccn1-c1nnc(N2CCCC2)s1", "survival": "inactive: 55%"}, {"smiles": "CC(=O)N1c2ccccc2C(C)(c2ccc(C)cc2)CC1(C)C", "note": "(configuration not stated)", "survival": "active: -4%"}, {"smiles": "COc1ccc(N2CCN(C(=O)c3cccc4ccccc34)CC2)cc1", "survival": "inactive: 66%"}, {"smiles": "COc1cc2c(cc1OC)C(COc1ccc3c(C)cc(=O)oc3c1)N(C(=O)c1ccccc1C)CC2", "note": "(configuration not stated)", "survival": "inactive: 121%"}, {"smiles": "COCCn1c(=O)[nH]c2cc(C(=O)N3CCN(c4ccccc4)CC3)ccc2c1=O", "survival": "inactive: 76%"}, {"smiles": "CCOC(=O)C1CCCN(CC(=O)Nc2cc(C)c3c(=O)oc4ccccc4c3n2)C1", "note": "(configuration not stated)", "survival": "inactive: 64%"}, {"smiles": "O=c1oc2ccc3ccccc3c2cc1-c1nnc(Nc2ccccc2F)s1", "survival": "inactive: 74%"}, {"smiles": "CCCSc1nc(-c2ccccc2)[nH]c1S(=O)(=O)c1ccc(C)cc1", "survival": "inactive: 55%"}, {"smiles": "COc1ccc(-c2n[nH]c3c2cnc2ccc(F)cc23)cc1", "survival": "inactive: 135%"}, {"smiles": "Cc1ccc(-c2c(C(=O)NCCc3ccccc3)oc(=O)c3ccccc23)cc1", "survival": "inactive: 91%"}, {"smiles": "COc1ccc(-c2cc3ccc(O)c(CN4CCCC4)c3oc2=O)cc1", "survival": "inactive: 123%"}, {"smiles": "N#C/C(=C\\c1ccc(-c2cccc(Cl)c2)o1)C(N)=O", "survival": "inactive: 99%"}, {"smiles": "COc1ccc2c(c1)c1c(c(=O)n(Cc3ccccc3)c(=O)n1Cc1cccc(Cl)c1)n2C", "survival": "inactive: 82%"}, {"smiles": "COc1ccccc1NC(=O)c1cnc(SCC(=O)N2CCOCC2)n(C)c1=O", "survival": "inactive: 91%"}, {"smiles": "CCn1cc(C(=O)NCCCOC)c(=O)c2cc(S(=O)(=O)N3CCc4ccccc4C3)ccc21", "survival": "inactive: 92%"}, {"smiles": "Cc1cc(C)c2oc(-c3ccc(Cl)c(NC(=O)c4cccs4)c3)nc2c1", "survival": "active: 55%"}, {"smiles": "COc1ccc(NC(=O)CS(=O)CC(=O)Nc2ccc(NC(C)=O)cc2)cc1", "note": "(configuration not stated)", "survival": "inactive: 95%"}, {"smiles": "CCc1ccc(NC(=O)C2CCCN2S(=O)(=O)c2ccc3c(c2)CCCC(=O)N3)cc1", "note": "(configuration not stated)", "survival": "inactive: 80%"}, {"smiles": "COc1ccc(CCNC(=O)c2ccc(Cn3c(=O)c4ccccc4n(Cc4cccc(F)c4)c3=O)cc2)cc1OC", "survival": "inactive: 78%"}, {"smiles": "O=C(CSc1nnnn1C1CCCC1)NCc1cccs1", "survival": "inactive: 103%"}, {"smiles": "Cc1ccc2c(c1)nnn2C1CCN(C(=O)N(c2ccccc2)c2ccccc2)CC1", "survival": "inactive: 90%"}, {"smiles": "Cc1cc2c(cc1NS(=O)(=O)c1cccc(C#N)c1)n(C)c(=O)c(=O)n2C", "survival": "inactive: 72%"}, {"smiles": "CCc1cccc(C)c1NC(=O)Cn1nnc(-c2nc(-c3ccccc3F)no2)c1N", "survival": "inactive: 97%"}, {"smiles": "COc1ccc(NS(=O)(=O)c2cc3c(cc2C)N(C(C)=O)CCO3)cc1", "survival": "inactive: 103%"}, {"smiles": "CCCOc1ccc(C2C(=O)N(C3CCC(C)CC3)CC(=O)N2Cc2cccc(OC)c2)cc1OC", "note": "(configuration not stated)", "survival": "inactive: 72%"}, {"smiles": "Cc1ccccc1/C=C(\\C#N)c1nc(-c2ccc(Cl)cc2)cs1", "survival": "active: 14%"}, {"smiles": "COc1cc2c(C)nc(C)c(C#N)c2cc1OC", "survival": "inactive: 88%"}, {"smiles": "Cc1csc2nc(-c3ccc(NS(=O)(=O)c4cc(F)ccc4F)cc3)cn12", "survival": "inactive: 87%"}, {"smiles": "CN(C(=O)c1ccc2c(Cl)c3c(nc2c1)CCC3)c1ccccc1F", "survival": "inactive: 118%"}, {"smiles": "Cc1ccc(CNC(=O)c2nnc(Cc3ccc(Cl)cc3)o2)cc1", "survival": "inactive: 99%"}, {"smiles": "CCN(CC)C(=O)Cn1c(=O)n(-c2ccccc2)c(=O)c2c3c(sc21)CCC3", "survival": "inactive: 97%"}, {"smiles": "COc1ccccc1C(=O)Nc1ccc(C(=O)OCc2cc(=O)n3nc(C)sc3n2)cc1", "survival": "inactive: 98%"}, {"smiles": "Cc1ccc(S(=O)(=O)c2cn(CC(=O)Nc3cccc(C)c3)c3cc4c(cc3c2=O)OCO4)cc1", "survival": "inactive: 61%"}, {"smiles": "CCCn1c(N)nc2c1c(=O)[nH]c(=O)n2C", "survival": "inactive: 71%"}, {"smiles": "CC1CCC(C(=O)NC(C(=O)OCC(=O)c2ccc(Br)cc2)C(C)C)CC1", "note": "(configuration not stated)", "survival": "inactive: 73%"}, {"smiles": "Cc1ccc(/C=C/c2onc(C)c2S(=O)(=O)N2CCC(C(=O)Nc3ccc(Br)c(C)c3)CC2)cc1", "survival": "inactive: 74%"}, {"smiles": "CNS(=O)(=O)c1cn(CC(=O)Nc2ccc(OC)cc2OC)cc1S(=O)(=O)NC", "survival": "inactive: 98%"}, {"smiles": "CCOc1ccc(Nc2oc(/C=C/c3cccc(OC)c3)nc2C#N)cc1", "survival": "inactive: 79%"}, {"smiles": "O=C(CSc1nc2sc3c(c2c(=O)[nH]1)CCCC3)Nc1nc2c(s1)CCCC2", "survival": "inactive: 80%"}, {"smiles": "CCCCCn1c(CCNC(=O)c2cccc(C)c2)nc2ccccc21", "survival": "active: 32%"}, {"smiles": "Cc1ccc2c(c1)C1OCCC1C(c1cccs1)N2", "note": "(configuration not stated)", "survival": "inactive: 94%"}]}]}
